# In PMC12820563, “FoxP3 forms a head-to-head dimer in vivo and stabilizes its multimerization on adjacent microsatellites”:
# The other results are listed elsewhere or left out.
# Target: T1, MBP-FoxP1dN (Mus musculus, UniProt P58462 326-579)
# T1 sequence: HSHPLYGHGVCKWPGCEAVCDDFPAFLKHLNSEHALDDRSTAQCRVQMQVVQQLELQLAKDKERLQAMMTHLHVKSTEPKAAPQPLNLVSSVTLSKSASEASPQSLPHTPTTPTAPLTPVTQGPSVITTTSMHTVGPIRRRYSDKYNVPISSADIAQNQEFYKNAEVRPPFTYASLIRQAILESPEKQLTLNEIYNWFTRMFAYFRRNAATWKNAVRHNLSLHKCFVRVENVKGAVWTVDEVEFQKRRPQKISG
# Experiment: PD-seq (MBP pull-down with sequencing); 20 mM Tris-HCl pH 7.5, 100 mM NaCl, 1.5 mM MgCl2, 0.4 uM protein, 0.1 uM dsDNA library, 30 min, room temperature, amylose pull-down; high values mean tight binding
# Details: protein: recombinant; tags: His6-MBP; chain copies: 2; dsDNA, one strand shown
# Summary of the method: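 A degenerate double-stranded DNA library, filled in with Klenow, was added at 0.1 µM to 0.4 µM His6-MBP-tagged mouse FoxP3 or FoxP1 fragment lacking the N-terminus, expressed in E. coli. Incubation lasted 30 min at room temperature in Tris pH 7.5 buffer with NaCl and MgCl2, after which complexes were collected on amylose resin, washed three times, digested with proteinase K to free the DNA, barcoded by PCR and sequenced by Illumina. Binding is the pooled-replicate reads-per-million enrichment of pull-down over input.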
row,Sequence,binding signal
1,GATGATTGTTCTCCCAGCTGATGAATTATTTTGCTCGAGTAAACAAATTTTCCTAATCTTTCTGTTCAAGCGCCATCTAC,1.29 RPM ratio (pull-down/input)
2,GATGATTGTTCTCCCAGCTGATGAATTGACCGGCTCGAGTAAACAAATTTTCCTAATCTTTCTGTTCAAGCGCCATCTAC,0.831 RPM ratio (pull-down/input)
3,GATGATTGTTCTCCCAGCTGATGAATTTAAAAATTCGAGTAAACAAATTTTCCTAATCTTTCTGTTCAAGCGCCATCTAC,0.915 RPM ratio (pull-down/input)
4,GATGATTGTTCTCCCAGCTGATGAATTGCCGCTCTCGAGTAAACAAATTTTCCTAATCTTTCTGTTCAAGCGCCATCTAC,0.884 RPM ratio (pull-down/input)
5,GATGATTGTTCTCCCAGCTGATGAATTAGTATAATCGAGTAAACAAATTTTCCTAATCTTTCTGTTCAAGCGCCATCTAC,1.2 RPM ratio (pull-down/input)
6,GATGATTGTTCTCCCAGCTGATGAATTACTTATCTCGAGTAAACAAATTTTCCTAATCTTTCTGTTCAAGCGCCATCTAC,1.09 RPM ratio (pull-down/input)
7,GATGATTGTTCTCCCAGCTGATGAATTATATGGTTCGAGTAAACAAATTTTCCTAATCTTTCTGTTCAAGCGCCATCTAC,1.01 RPM ratio (pull-down/input)
8,GATGATTGTTCTCCCAGCTGATGAATTGGGGCTTTCGAGTAAACAAATTTTCCTAATCTTTCTGTTCAAGCGCCATCTAC,0.874 RPM ratio (pull-down/input)
9,GATGATTGTTCTCCCAGCTGATGAATTTCCACCGTCGAGTAAACAAATTTTCCTAATCTTTCTGTTCAAGCGCCATCTAC,0.801 RPM ratio (pull-down/input)
10,GATGATTGTTCTCCCAGCTGATGAATTTACTTGGTCGAGTAAACAAATTTTCCTAATCTTTCTGTTCAAGCGCCATCTAC,1.23 RPM ratio (pull-down/input)
11,GATGATTGTTCTCCCAGCTGATGAATTCTCTGTGTCGAGTAAACAAATTTTCCTAATCTTTCTGTTCAAGCGCCATCTAC,0.889 RPM ratio (pull-down/input)
12,GATGATTGTTCTCCCAGCTGATGAATTAATAACGTCGAGTAAACAAATTTTCCTAATCTTTCTGTTCAAGCGCCATCTAC,1.19 RPM ratio (pull-down/input)
13,GATGATTGTTCTCCCAGCTGATGAATTGGGGTTATCGAGTAAACAAATTTTCCTAATCTTTCTGTTCAAGCGCCATCTAC,0.954 RPM ratio (pull-down/input)
14,GATGATTGTTCTCCCAGCTGATGAATTCAATCGCTCGAGTAAACAAATTTTCCTAATCTTTCTGTTCAAGCGCCATCTAC,0.863 RPM ratio (pull-down/input)
15,GATGATTGTTCTCCCAGCTGATGAATTAGAGGACTCGAGTAAACAAATTTTCCTAATCTTTCTGTTCAAGCGCCATCTAC,0.842 RPM ratio (pull-down/input)
16,GATGATTGTTCTCCCAGCTGATGAATTCCGGTGCTCGAGTAAACAAATTTTCCTAATCTTTCTGTTCAAGCGCCATCTAC,0.821 RPM ratio (pull-down/input)
17,GATGATTGTTCTCCCAGCTGATGAATTTCCTCCTTCGAGTAAACAAATTTTCCTAATCTTTCTGTTCAAGCGCCATCTAC,0.839 RPM ratio (pull-down/input)
18,GATGATTGTTCTCCCAGCTGATGAATTTTCTCAATCGAGTAAACAAATTTTCCTAATCTTTCTGTTCAAGCGCCATCTAC,1.07 RPM ratio (pull-down/input)
19,GATGATTGTTCTCCCAGCTGATGAATTGGACGTCTCGAGTAAACAAATTTTCCTAATCTTTCTGTTCAAGCGCCATCTAC,0.796 RPM ratio (pull-down/input)
20,GATGATTGTTCTCCCAGCTGATGAATTAAAAAGTTCGAGTAAACAAATTTTCCTAATCTTTCTGTTCAAGCGCCATCTAC,0.935 RPM ratio (pull-down/input)
21,GATGATTGTTCTCCCAGCTGATGAATTCTATGCGTCGAGTAAACAAATTTTCCTAATCTTTCTGTTCAAGCGCCATCTAC,1.02 RPM ratio (pull-down/input)

row,Sequence,binding signal
1,GATGATTGTTCTCCCAGCTGATGAATTCCCCCTATCGAGTAAACAAATTTTCCTAATCTTTCTGTTCAAGCGCCATCTAC,0.813 RPM ratio (pull-down/input)
2,GATGATTGTTCTCCCAGCTGATGAATTATGTTAATCGAGTAAACAAATTTTCCTAATCTTTCTGTTCAAGCGCCATCTAC,1.21 RPM ratio (pull-down/input)
3,GATGATTGTTCTCCCAGCTGATGAATTCCACGACTCGAGTAAACAAATTTTCCTAATCTTTCTGTTCAAGCGCCATCTAC,0.81 RPM ratio (pull-down/input)
4,GATGATTGTTCTCCCAGCTGATGAATTACACTGTTCGAGTAAACAAATTTTCCTAATCTTTCTGTTCAAGCGCCATCTAC,1.23 RPM ratio (pull-down/input)
5,GATGATTGTTCTCCCAGCTGATGAATTTCTAGGCTCGAGTAAACAAATTTTCCTAATCTTTCTGTTCAAGCGCCATCTAC,0.723 RPM ratio (pull-down/input)
6,GATGATTGTTCTCCCAGCTGATGAATTCACCGAATCGAGTAAACAAATTTTCCTAATCTTTCTGTTCAAGCGCCATCTAC,0.939 RPM ratio (pull-down/input)
7,GATGATTGTTCTCCCAGCTGATGAATTAGCCGCATCGAGTAAACAAATTTTCCTAATCTTTCTGTTCAAGCGCCATCTAC,1.07 RPM ratio (pull-down/input)
8,GATGATTGTTCTCCCAGCTGATGAATTTCACACCTCGAGTAAACAAATTTTCCTAATCTTTCTGTTCAAGCGCCATCTAC,0.791 RPM ratio (pull-down/input)
9,GATGATTGTTCTCCCAGCTGATGAATTGGCCTTATCGAGTAAACAAATTTTCCTAATCTTTCTGTTCAAGCGCCATCTAC,0.84 RPM ratio (pull-down/input)
10,GATGATTGTTCTCCCAGCTGATGAATTCAAGGTATCGAGTAAACAAATTTTCCTAATCTTTCTGTTCAAGCGCCATCTAC,0.993 RPM ratio (pull-down/input)
11,GATGATTGTTCTCCCAGCTGATGAATTATCCTACTCGAGTAAACAAATTTTCCTAATCTTTCTGTTCAAGCGCCATCTAC,1.03 RPM ratio (pull-down/input)
12,GATGATTGTTCTCCCAGCTGATGAATTATGTTGGTCGAGTAAACAAATTTTCCTAATCTTTCTGTTCAAGCGCCATCTAC,1.87 RPM ratio (pull-down/input)
13,GATGATTGTTCTCCCAGCTGATGAATTTACTGCGTCGAGTAAACAAATTTTCCTAATCTTTCTGTTCAAGCGCCATCTAC,1.22 RPM ratio (pull-down/input)
14,GATGATTGTTCTCCCAGCTGATGAATTGCAATTATCGAGTAAACAAATTTTCCTAATCTTTCTGTTCAAGCGCCATCTAC,1.67 RPM ratio (pull-down/input)
15,GATGATTGTTCTCCCAGCTGATGAATTGATTTGGTCGAGTAAACAAATTTTCCTAATCTTTCTGTTCAAGCGCCATCTAC,1.13 RPM ratio (pull-down/input)
16,GATGATTGTTCTCCCAGCTGATGAATTGAATGGTTCGAGTAAACAAATTTTCCTAATCTTTCTGTTCAAGCGCCATCTAC,0.852 RPM ratio (pull-down/input)
17,GATGATTGTTCTCCCAGCTGATGAATTTCTTCCCTCGAGTAAACAAATTTTCCTAATCTTTCTGTTCAAGCGCCATCTAC,0.885 RPM ratio (pull-down/input)
18,GATGATTGTTCTCCCAGCTGATGAATTGGAAGCTTCGAGTAAACAAATTTTCCTAATCTTTCTGTTCAAGCGCCATCTAC,0.764 RPM ratio (pull-down/input)
19,GATGATTGTTCTCCCAGCTGATGAATTCACCAGATCGAGTAAACAAATTTTCCTAATCTTTCTGTTCAAGCGCCATCTAC,0.9 RPM ratio (pull-down/input)
20,GATGATTGTTCTCCCAGCTGATGAATTAAAAACCTCGAGTAAACAAATTTTCCTAATCTTTCTGTTCAAGCGCCATCTAC,0.874 RPM ratio (pull-down/input)
21,GATGATTGTTCTCCCAGCTGATGAATTCGTTCATTCGAGTAAACAAATTTTCCTAATCTTTCTGTTCAAGCGCCATCTAC,0.858 RPM ratio (pull-down/input)

row,Sequence,binding signal
1,GATGATTGTTCTCCCAGCTGATGAATTAGATATCTCGAGTAAACAAATTTTCCTAATCTTTCTGTTCAAGCGCCATCTAC,0.887 RPM ratio (pull-down/input)
2,GATGATTGTTCTCCCAGCTGATGAATTTAGGTCATCGAGTAAACAAATTTTCCTAATCTTTCTGTTCAAGCGCCATCTAC,0.942 RPM ratio (pull-down/input)
3,GATGATTGTTCTCCCAGCTGATGAATTTGACGACTCGAGTAAACAAATTTTCCTAATCTTTCTGTTCAAGCGCCATCTAC,0.806 RPM ratio (pull-down/input)
4,GATGATTGTTCTCCCAGCTGATGAATTCCAGGTCTCGAGTAAACAAATTTTCCTAATCTTTCTGTTCAAGCGCCATCTAC,0.749 RPM ratio (pull-down/input)
5,GATGATTGTTCTCCCAGCTGATGAATTTGGTGGTTCGAGTAAACAAATTTTCCTAATCTTTCTGTTCAAGCGCCATCTAC,0.899 RPM ratio (pull-down/input)
6,GATGATTGTTCTCCCAGCTGATGAATTCCTGGGTTCGAGTAAACAAATTTTCCTAATCTTTCTGTTCAAGCGCCATCTAC,0.781 RPM ratio (pull-down/input)
7,GATGATTGTTCTCCCAGCTGATGAATTTATGCATTCGAGTAAACAAATTTTCCTAATCTTTCTGTTCAAGCGCCATCTAC,1.69 RPM ratio (pull-down/input)
8,GATGATTGTTCTCCCAGCTGATGAATTAGTCTTATCGAGTAAACAAATTTTCCTAATCTTTCTGTTCAAGCGCCATCTAC,0.994 RPM ratio (pull-down/input)
9,GATGATTGTTCTCCCAGCTGATGAATTGCTGGAATCGAGTAAACAAATTTTCCTAATCTTTCTGTTCAAGCGCCATCTAC,1.07 RPM ratio (pull-down/input)
10,GATGATTGTTCTCCCAGCTGATGAATTTTCATTTTCGAGTAAACAAATTTTCCTAATCTTTCTGTTCAAGCGCCATCTAC,1.06 RPM ratio (pull-down/input)
11,GATGATTGTTCTCCCAGCTGATGAATTGCTAGTTTCGAGTAAACAAATTTTCCTAATCTTTCTGTTCAAGCGCCATCTAC,1.12 RPM ratio (pull-down/input)
12,GATGATTGTTCTCCCAGCTGATGAATTTGACCGTTCGAGTAAACAAATTTTCCTAATCTTTCTGTTCAAGCGCCATCTAC,0.748 RPM ratio (pull-down/input)
13,GATGATTGTTCTCCCAGCTGATGAATTACCTTCTTCGAGTAAACAAATTTTCCTAATCTTTCTGTTCAAGCGCCATCTAC,1.02 RPM ratio (pull-down/input)
14,GATGATTGTTCTCCCAGCTGATGAATTTGTGCCCTCGAGTAAACAAATTTTCCTAATCTTTCTGTTCAAGCGCCATCTAC,0.999 RPM ratio (pull-down/input)
15,GATGATTGTTCTCCCAGCTGATGAATTCCAATGGTCGAGTAAACAAATTTTCCTAATCTTTCTGTTCAAGCGCCATCTAC,0.818 RPM ratio (pull-down/input)
16,GATGATTGTTCTCCCAGCTGATGAATTGCCGGTTTCGAGTAAACAAATTTTCCTAATCTTTCTGTTCAAGCGCCATCTAC,0.955 RPM ratio (pull-down/input)
17,GATGATTGTTCTCCCAGCTGATGAATTCAATGCCTCGAGTAAACAAATTTTCCTAATCTTTCTGTTCAAGCGCCATCTAC,0.901 RPM ratio (pull-down/input)
18,GATGATTGTTCTCCCAGCTGATGAATTCGCGTTCTCGAGTAAACAAATTTTCCTAATCTTTCTGTTCAAGCGCCATCTAC,0.87 RPM ratio (pull-down/input)
19,GATGATTGTTCTCCCAGCTGATGAATTATTCTTTTCGAGTAAACAAATTTTCCTAATCTTTCTGTTCAAGCGCCATCTAC,1.17 RPM ratio (pull-down/input)
20,GATGATTGTTCTCCCAGCTGATGAATTAGTAAGATCGAGTAAACAAATTTTCCTAATCTTTCTGTTCAAGCGCCATCTAC,0.937 RPM ratio (pull-down/input)
21,GATGATTGTTCTCCCAGCTGATGAATTCGGTGAATCGAGTAAACAAATTTTCCTAATCTTTCTGTTCAAGCGCCATCTAC,0.946 RPM ratio (pull-down/input)
